Results from PMC6744581.
Substitutions are numbered along the chain they refer to. Results are given in words; binding and its absence hold for the method and conditions named. In cells and extracts the contact can be indirect. Some entries that bind do so weakly or less than the wild type. For some of these results: Tags and fused reporters may be left off the sequences shown.

By UniProt entry, the sequences of proteins in these tests, tags left out. Where a name states a change or a piece, a line headed by the entry shows the natural chain unless it says otherwise.
UniProt P61586: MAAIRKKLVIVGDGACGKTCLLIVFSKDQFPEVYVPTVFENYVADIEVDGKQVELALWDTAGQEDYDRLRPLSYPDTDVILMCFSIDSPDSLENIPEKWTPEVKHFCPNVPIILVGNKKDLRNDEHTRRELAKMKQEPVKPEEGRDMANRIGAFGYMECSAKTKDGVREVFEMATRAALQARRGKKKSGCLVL
UniProt Q13464: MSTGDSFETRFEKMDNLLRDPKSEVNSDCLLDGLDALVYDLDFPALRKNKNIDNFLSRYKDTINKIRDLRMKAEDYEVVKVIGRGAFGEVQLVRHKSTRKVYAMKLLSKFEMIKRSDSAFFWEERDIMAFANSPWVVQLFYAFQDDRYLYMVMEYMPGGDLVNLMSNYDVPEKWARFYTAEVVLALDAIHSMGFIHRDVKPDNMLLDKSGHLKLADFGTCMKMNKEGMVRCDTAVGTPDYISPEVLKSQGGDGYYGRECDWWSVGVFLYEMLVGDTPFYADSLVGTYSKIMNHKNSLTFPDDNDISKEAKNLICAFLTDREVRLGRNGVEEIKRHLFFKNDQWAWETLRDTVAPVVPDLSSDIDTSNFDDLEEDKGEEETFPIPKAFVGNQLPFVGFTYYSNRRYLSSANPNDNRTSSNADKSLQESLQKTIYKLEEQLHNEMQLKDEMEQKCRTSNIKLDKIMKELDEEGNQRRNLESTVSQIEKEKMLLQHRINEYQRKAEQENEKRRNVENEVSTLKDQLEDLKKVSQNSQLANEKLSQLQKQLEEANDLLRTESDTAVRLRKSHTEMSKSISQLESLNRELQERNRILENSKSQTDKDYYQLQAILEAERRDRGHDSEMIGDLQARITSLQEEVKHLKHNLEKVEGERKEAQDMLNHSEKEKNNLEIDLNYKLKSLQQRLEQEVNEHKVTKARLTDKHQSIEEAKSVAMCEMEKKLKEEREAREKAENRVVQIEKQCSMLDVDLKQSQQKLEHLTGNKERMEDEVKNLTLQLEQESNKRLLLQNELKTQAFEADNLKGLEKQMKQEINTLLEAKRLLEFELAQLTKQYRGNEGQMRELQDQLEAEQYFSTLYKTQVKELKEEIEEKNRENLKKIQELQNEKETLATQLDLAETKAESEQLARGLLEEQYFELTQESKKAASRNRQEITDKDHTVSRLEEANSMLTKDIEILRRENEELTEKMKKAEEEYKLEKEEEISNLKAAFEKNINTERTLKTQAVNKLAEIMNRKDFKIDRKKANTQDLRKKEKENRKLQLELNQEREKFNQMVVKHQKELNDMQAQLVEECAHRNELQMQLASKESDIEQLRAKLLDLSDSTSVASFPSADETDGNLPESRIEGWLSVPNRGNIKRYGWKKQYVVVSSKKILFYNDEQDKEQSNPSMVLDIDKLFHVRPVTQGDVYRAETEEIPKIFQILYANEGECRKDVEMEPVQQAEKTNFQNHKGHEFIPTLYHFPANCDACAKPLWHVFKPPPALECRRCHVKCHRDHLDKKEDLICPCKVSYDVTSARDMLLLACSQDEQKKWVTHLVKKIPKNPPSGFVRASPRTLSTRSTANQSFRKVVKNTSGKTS

How the values were obtained:
GFP-RhoBTB1 (human) = molecular target: T1, GFP-RhoBTB1 (human) (UniProt O94844); assay: co-IP; COS7 cells co-transfected, lysed after 24 h in IP lysis buffer (1% Triton X-100, 20 mM Tris pH 8, 130 mM NaCl, 1 mM DTT); GFP fusion held on GFP-trap beads; blots for myc or HA and GFP
T1 sequence: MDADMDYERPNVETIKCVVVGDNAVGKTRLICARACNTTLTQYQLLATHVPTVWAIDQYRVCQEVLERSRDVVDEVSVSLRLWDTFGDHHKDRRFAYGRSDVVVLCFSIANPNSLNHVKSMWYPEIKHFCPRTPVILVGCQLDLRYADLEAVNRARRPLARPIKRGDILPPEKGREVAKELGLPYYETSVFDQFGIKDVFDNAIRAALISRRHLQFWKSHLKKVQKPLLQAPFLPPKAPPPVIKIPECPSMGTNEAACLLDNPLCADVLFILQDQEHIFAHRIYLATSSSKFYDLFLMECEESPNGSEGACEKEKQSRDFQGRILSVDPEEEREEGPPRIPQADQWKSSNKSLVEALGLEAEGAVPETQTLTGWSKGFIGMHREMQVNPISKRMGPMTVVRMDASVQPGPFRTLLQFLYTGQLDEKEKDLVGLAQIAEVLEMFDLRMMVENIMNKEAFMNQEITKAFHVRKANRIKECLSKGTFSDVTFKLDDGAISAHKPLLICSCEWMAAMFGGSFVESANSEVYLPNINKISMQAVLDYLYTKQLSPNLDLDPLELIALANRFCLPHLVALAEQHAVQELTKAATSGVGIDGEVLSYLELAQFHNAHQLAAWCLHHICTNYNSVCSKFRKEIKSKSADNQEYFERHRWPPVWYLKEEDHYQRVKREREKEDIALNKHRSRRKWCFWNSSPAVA

[1] = molecular target: T2, GFP-RhoBTB1^1–210 (human) (UniProt O94844); assay: as above
T2 sequence: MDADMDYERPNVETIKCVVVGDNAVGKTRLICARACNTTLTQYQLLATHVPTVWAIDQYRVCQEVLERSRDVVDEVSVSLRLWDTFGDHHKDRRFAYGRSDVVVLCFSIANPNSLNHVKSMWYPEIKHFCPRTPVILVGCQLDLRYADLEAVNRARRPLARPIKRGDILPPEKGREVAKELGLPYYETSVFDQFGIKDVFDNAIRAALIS

[2] = molecular target: T3, GFP-RhoBTB1 R/C/E (R60A/C62A/E64A) (human) (UniProt O94844); assay: as above
T3 sequence: T1 sequence with R60A, C62A, E64A

GFP-RhoBTB1^E64A (human) = molecular target: T4, GFP-RhoBTB1^E64A (human) (UniProt O94844); assay: as above
T4 sequence: T1 sequence with E64A

[3] = molecular target: T5, GFP-RhoBTB1 E/K (E64A/K197A) (human) (UniProt O94844); assay: as above
T5 sequence: T1 sequence with E64A, K197A

[4] = molecular target: T6, GFP-RhoBTB1^K197A (human) (UniProt O94844); assay: as above
T6 sequence: T1 sequence with K197A

[5] = molecular target: T7, GFP-RhoBTB1^D198A (human) (UniProt O94844); assay: as above
T7 sequence: T1 sequence with D198A

GFP-RhoA^G14V = GFP-RhoA^G14V (UniProt P61586); assay: co-IP; GFP-RhoA^G14V co-expressed with myc-ROCK1 deletion mutants (Supplementary Figure S2A); beads and cells not told for this experiment

Row | Substance | binding (GFP-RhoBTB1 (human)) | binding [1] | binding (GFP-RhoA^G14V) | also measured
1 | myc-ROCK1^1–727 (from UniProt Q13464 1-727) (domain or fragment) | binds | binds | binds | binding [2]: binds; binding (GFP-RhoBTB1^E64A (human)): binds; binding [3]: binds; binding [4]: binds; binding [5]: binds
2 | myc-ROCK1^1–420 (from UniProt Q13464 1-420) (domain or fragment) |  | no binding | binds | 
3 | myc-ROCK1^1–1080 (from UniProt Q13464 1-1080) (domain or fragment) | binds | binds |  | 
4 | myc-ROCK1^375–727 (from UniProt Q13464 375-727) (domain or fragment) | binds |  |  | 
5 | myc-ROCK1^1–540 (from UniProt Q13464 1-540) (domain or fragment) | binds | binds |  | 
6 | myc-ROCK1^1096–1354 (from UniProt Q13464 1096-1354) (domain or fragment) | no binding |  |  | 
